Measured values taken from publication PMC4336329 (PLoS ONE, 2015).
Out of some 310,000 compounds screened, about 2,200 (0.71%) showed an effect of 50% or more. Effects have a minus sign here. The list shows a part of the results.

These compounds were tested against human ether-à-go-go-related gene (hERG) potassium channel (human, UniProt Q12809) (assay: primary screen, population patch clamp on CHO cells stably expressing hERG).
human ether-à-go-go-related gene (hERG) potassium channel, sequence (Q12809 whole entry, looked up): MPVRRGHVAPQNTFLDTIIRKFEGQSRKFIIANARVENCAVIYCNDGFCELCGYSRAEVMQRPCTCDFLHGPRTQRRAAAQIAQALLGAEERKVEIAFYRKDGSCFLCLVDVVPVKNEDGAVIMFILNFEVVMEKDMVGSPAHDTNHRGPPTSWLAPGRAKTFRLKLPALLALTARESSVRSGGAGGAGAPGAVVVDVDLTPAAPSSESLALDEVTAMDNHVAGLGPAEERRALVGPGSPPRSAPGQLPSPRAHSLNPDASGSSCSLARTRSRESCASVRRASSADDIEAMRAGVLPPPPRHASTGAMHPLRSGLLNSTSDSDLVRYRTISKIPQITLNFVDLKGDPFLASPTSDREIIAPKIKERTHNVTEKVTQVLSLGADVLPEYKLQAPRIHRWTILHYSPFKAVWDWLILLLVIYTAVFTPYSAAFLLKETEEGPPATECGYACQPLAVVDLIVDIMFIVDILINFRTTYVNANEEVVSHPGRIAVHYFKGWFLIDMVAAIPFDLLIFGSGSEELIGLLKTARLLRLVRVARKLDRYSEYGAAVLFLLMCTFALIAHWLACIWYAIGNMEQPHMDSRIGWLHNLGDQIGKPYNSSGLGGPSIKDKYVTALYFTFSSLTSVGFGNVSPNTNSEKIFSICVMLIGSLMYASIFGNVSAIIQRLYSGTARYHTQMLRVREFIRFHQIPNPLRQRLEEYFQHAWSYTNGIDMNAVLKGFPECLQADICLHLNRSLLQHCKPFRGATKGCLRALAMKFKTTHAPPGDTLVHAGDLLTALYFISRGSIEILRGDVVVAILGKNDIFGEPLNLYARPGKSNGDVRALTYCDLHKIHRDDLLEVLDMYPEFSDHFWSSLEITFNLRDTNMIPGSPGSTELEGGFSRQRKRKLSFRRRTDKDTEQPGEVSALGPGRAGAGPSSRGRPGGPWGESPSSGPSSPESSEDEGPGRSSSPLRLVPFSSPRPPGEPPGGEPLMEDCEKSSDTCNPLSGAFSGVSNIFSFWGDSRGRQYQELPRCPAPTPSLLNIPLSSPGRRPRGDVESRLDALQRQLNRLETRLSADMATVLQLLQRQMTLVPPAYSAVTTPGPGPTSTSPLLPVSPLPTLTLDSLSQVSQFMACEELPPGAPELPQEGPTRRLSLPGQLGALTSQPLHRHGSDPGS

Row | SMILES | hERG current change (%, negative = inhibition) at 1uM
1 | CC(Sc1nc(N2CCOCC2)c2c(c1C#N)CC(C)(C)OC2)C(=O)O (centres unmarked) | 16%
2 | Cc1cc(C)cc(C(=O)Oc2cc(C)[nH]c(=O)c2[N+](=O)[O-])c1 | 17%
3 | CCCCOc1ccc(Nc2cc(Cl)ccc2C(=O)O)cn1 | 15.6%
4 | C=CCn1c(CNC(=O)c2cccs2)n[nH]c1=S | 8.99%
5 | COc1ccc(Nc2nc(NCc3ccco3)nc(N)c2[N+](=O)[O-])cc1 | 18%
6 | Cc1cc(Br)ccc1NC(=O)CN(C)C(=O)C1CCN(C(=O)c2ccc(F)cc2)CC1 | -27.8%
7 | CC1(C)CC(=O)C=C(C(=O)N2CCCC(CCC(=O)NCc3ccccc3F)C2)O1 (centres unmarked) | 9.41%
8 | O=C(Cc1ccc(-n2c(=S)[nH]c3ccccc3c2=O)cc1)N1CCN(c2ccccc2)CC1 | 11.7%
9 | COc1ccc(N2C(=O)c3cc4ccccc4cc3C2=O)cc1 | 8.97%
10 | COc1c(O)ccc2c1CN1CCc3cc4c(cc3C1C2)OCO4 (centres unmarked) | 3.77%
11 | Cc1ccc(S(=O)(=O)c2nc(NCc3ccc4c(c3)OCO4)sc2Cl)cc1 | 7.31%
12 | COc1ccc(OC)c(N(CC(=O)Nc2cccc(C(F)(F)F)c2)S(C)(=O)=O)c1 | 9.72%
13 | O=C1Nc2ccccc2C12OCCO2 | 8.92%
14 | N/C(=N\OC(=O)Nc1ccc(Cl)cc1)c1ncc(C(F)(F)F)cc1Cl | 3.63%
15 | COc1ccc(S(N)(=O)=O)cc1C(N)=O | 4.77%
16 | CC(C)CCN(C(=O)Cc1ccc(Cl)c(Cl)c1)c1c(N)n(Cc2ccccc2)c(=O)[nH]c1=O | 6.74%
17 | [O-][n+]1onc2c1CCC1N(O)C(c3ccccc3)CC21O (centres unmarked) | 13.4%
18 | CCC(C(=O)N1CCOCC1)n1nc(C)c2sc3ccccc3c2c1=O (centres unmarked) | 18.9%
19 | CC1(C)Cc2cccc(OCC(=O)NCCc3ccccc3)c2O1 | 11%

Row | SMILES | hERG current change (%, negative = inhibition) at 1uM
20 | Cn1nnc2cc(C(=O)N3CCC(c4ccccc4)C3)ccc21 (centres unmarked) | -2.31%
21 | C[NH+](C)CCOC(=O)c1ccc(COc2ccccc2Br)o1.[Cl-] | 4.13%
22 | NS(=O)(=O)c1ccc(CCNC(=O)COC(=O)CN2C(=O)C3CCCCC3C2=O)cc1 (centres unmarked) | 2.5%
23 | Cc1cccc(NC(=O)C(CC(C)C)NC(=O)C2CCC(C)CC2)n1 (centres unmarked) | -2.77%
24 | Cc1cccn2c(=O)c3cc(C#N)c(=NC(=O)c4cccs4)n(CC(C)C)c3nc12 | 7.98%
25 | CCCc1cc(=O)[nH]c(SCC(=O)N2CCC(C(=O)OCC)CC2)n1 | 7.32%
26 | COc1ccc(NC(=O)c2cc(S(=O)(=O)N3CCCC3)ccc2C)cn1 | 14.5%
27 | CC(OC(=O)c1ccc(NC(=O)CC#N)cc1)C(=O)Nc1nc(-c2ccccc2)cs1 (centres unmarked) | 0.382%
28 | CC(=O)c1ccc(OCc2cc(C(=O)N3CC4C[C@@H]5CC3C[C@H](C4)C5)no2)cc1 | 10.9%
29 | O=C(/C=C/c1cccs1)Nc1ccc(N2CCOCC2)c(S(=O)(=O)Nc2ccccc2Cl)c1 | 6.01%
30 | COC(=O)c1ccc(Oc2c(C)oc3cc(OCc4cnn(-c5ccccc5)c4)ccc3c2=O)cc1 | 4.33%
31 | O=C1C=C(c2cccc(CO)c2)C[C@@H](c2ccc(Cl)cc2)C1 | 4.24%
32 | CC(=O)Nc1c(C)ccc(S(N)(=O)=O)c1C | 5.37%
33 | CC(=O)Nc1ccc(SC[C@H](C)CN2CC[C@H](C(C)(C)C)CCC2=O)cc1 | 12.6%
34 | CCC(C)NC(=O)CSc1nnc(-c2ccoc2C)n1CC1CCCO1 (centres unmarked) | 10.1%
35 | O=C(NCC(c1ccco1)N1CCCC1)c1ccccc1F (centres unmarked) | 15%
36 | O=C(O)c1ccccc1NCN1C(=O)C2CC=C(Cl)CC2C1=O (centres unmarked) | -4.01%
37 | O=[N+]([O-])c1cc(C(F)(F)F)ccc1NN=C1CCCC1 | 9.06%
38 | COc1ccc(CNC(=O)c2ccc(S(=O)(=O)N3CCCC3)cc2)cc1OC | 14.4%

Row | SMILES | hERG current change (%, negative = inhibition) at 1uM
39 | CCC(C)c1ccc(OCc2ccc(C(=O)OC)o2)cc1 (centres unmarked) | 9.55%
40 | Cc1nn(-c2cc(N(S(C)(=O)=O)S(C)(=O)=O)c(Cl)cc2Cl)c(=O)n1C | 14.1%
41 | COc1ccc(C2NC(c3ccc(OC)cc3OC)C(C)C(=O)C2C)c(OC)c1.O=C(O)C(=O)O (centres unmarked) | 13.1%
42 | COCCN(C(=S)Nc1cccc(OC)c1)C1CCN(C(C)=O)CC1 | 16.6%
43 | O=C(O)c1ccc(-n2ccnc2)c([N+](=O)[O-])c1 | 21.6%
44 | CN(CC(=O)Nc1cccc(F)c1)C(=O)c1cc([N+](=O)[O-])ccc1N1CCCCC1 | 17.8%
45 | O=C(Cc1ccccc1)Nc1ccc(NC(=O)c2cccs2)c(Cl)c1 | 21.5%
46 | COc1ccc(OC)c(S(=O)(=O)ON2C(=O)c3ccccc3C2=O)c1 | 13.1%
47 | CCCC1NC(=O)NC(C)=C1C(=O)OCC (centres unmarked) | 2.69%
48 | COc1ccc(CCNC(=O)CCC(=O)N2CCOc3ccc(Cl)cc32)cc1OC | -1.92%
49 | O=C(NCC(c1ccc(F)cc1)N1CCOCC1)c1cccc(Br)c1 (centres unmarked) | 8.73%
50 | CC(=O)Oc1ccc(N2C(=O)C3C4C=CC(C5CC45)C3C2=O)cc1[N+](=O)[O-] (centres unmarked) | -6.65%
51 | O=C(CN1C(=O)NC2(CCCCC2)C1=O)N1CCc2ccccc2C1 | 3.36%
52 | CC(C)CCN1C(=O)c2ccc(-c3nc4ccccc4c(=O)o3)cc2C1=O | 7.95%
53 | O=S(=O)(c1ccc(Cl)s1)N1CCC2(CC1)OCCO2 | 8.78%
54 | CCOC(=O)c1cc(Sc2ccccc2N)cc(C(=O)OCC)n1 | 12.2%
55 | COc1ccc(-c2cc(=O)[nH][nH]2)cc1OC | 8.27%
56 | O=C(CSC1c2ccccc2-c2ccccc21)N/N=C/c1ccccc1 | 23.1%
